# Data from the antibiotic and cytotoxicity screens of Wong et al. (2023).
# This is one part of the list.
# Legend:
# HSkMC = human skeletal muscle cells; experiment: cytotoxicity call (relative viability < 0.9); conditions: 10 µM
# HepG2 = experiment: cytotoxicity call (relative viability < 0.9); conditions: 10 µM
# S. aureus RN4220 = experiment: growth inhibition call (relative growth <= 0.2); conditions: 50 µM
Compound,cytotoxicity call (HSkMC),cytotoxicity call (HepG2),growth inhibition call (S. aureus RN4220)
Cc1noc(C)c1S(=O)(=O)Nc1ccc2c(c1)C(=O)N([C@@H](C)CO)C[C@@H](C)[C@H](CN(C)S(C)(=O)=O)OCCCC[C@@H](C)O2,inactive,inactive,inactive
O=C(C[C@H]1C[C@H]2c3cc(NC(=O)Nc4ccccc4F)ccc3O[C@H]2[C@H](CO)O1)NCc1ccc(Oc2ccccc2)cc1,inactive,inactive,inactive
COc1ccc(CN(C)C[C@H]2OCCCC[C@@H](C)Oc3ccc(NC(=O)CCC(F)(F)F)cc3C(=O)N([C@H](C)CO)C[C@H]2C)cc1,inactive,inactive,inactive
CN(C)CCCCCCNC(=O)[C@H]1C[C@H]2C(=O)N[C@@H](CCCC[N+](C)(C)C)C(=O)N2[C@H]1c1cccc(OCCO)c1,inactive,inactive,inactive
C[C@H](CO)N1C[C@H](C)[C@@H](CN(C)C(=O)C2CCCCC2)OCCCC[C@H](C)Oc2ccc(NC(=O)CCC(F)(F)F)cc2C1=O,inactive,inactive,inactive
C[C@@H]1CN([C@@H](C)CO)C(=O)c2cc(NS(=O)(=O)c3ccc(Cl)cc3)ccc2O[C@H]1CN(C)S(C)(=O)=O,inactive,inactive,inactive
C[C@@H]1CN([C@H](C)CO)C(=O)CCCn2nncc2CO[C@H]1CN(C)C(=O)c1ccc(N2CCN(C)CC2)cc1,inactive,inactive,inactive
NCCS,inactive,inactive,inactive
C[C@@H]1CCCCO[C@@H](CN(C)S(=O)(=O)c2ccc(Cl)cc2)[C@H](C)CN([C@@H](C)CO)C(=O)c2cc(NC(=O)NC3CCCCC3)ccc2O1,inactive,inactive,inactive
COc1ccccc1-c1cnc2c(c1)C(=O)N([C@@H](C)CO)C[C@@H](C)[C@@H](CN(C)C(=O)c1ccncc1)O2,inactive,inactive,inactive
Cc1ccc(N2C[C@@H](N)CC2=O)cc1C,inactive,inactive,inactive
C[C@@H]1CCCCO[C@@H](CN(C)CC2CCCCC2)[C@@H](C)CN([C@H](C)CO)C(=O)c2cc(NC(=O)Nc3ccc4c(c3)OCO4)ccc2O1,inactive,active,inactive
C#CCCC(=O)NS(=O)(=O)c1ccccc1,inactive,inactive,inactive
O=c1ccc(=O)n(CNc2nccs2)[nH]1,inactive,inactive,inactive
O=C(Nc1ccc2c(c1)[C@H]1C[C@H](CC(=O)N3CCc4ccccc4C3)O[C@H](CO)[C@H]1O2)C1CCOCC1,inactive,inactive,inactive
C[C@H]1CCCCO[C@H](CN(C)Cc2ccncc2)[C@@H](C)CN([C@@H](C)CO)C(=O)c2cc(NC(=O)c3ccccc3)ccc2O1,inactive,inactive,inactive
Cc1ccc(S(=O)(=O)N(C)C[C@H]2Oc3ccc(NC(=O)CCN4CCOCC4)cc3CC(=O)N([C@H](C)CO)C[C@H]2C)cc1,inactive,inactive,inactive
COc1ccc(NC(=O)N(C)C[C@H]2Oc3ccc(NC(=O)CCN4CCOCC4)cc3CC(=O)N([C@H](C)CO)C[C@@H]2C)cc1,inactive,inactive,inactive
C[C@H](CO)N1C[C@H](C)[C@H](CN(C)S(C)(=O)=O)Oc2ccc(NC(=O)Cc3cn(C)c4ccccc34)cc2CC1=O,inactive,inactive,inactive
COC(=O)c1ccc(O)c(/C=N/N(CCO)C2=NS(=O)(=O)c3ccccc32)c1,inactive,inactive,inactive
CC(C)N(C[C@H]1O[C@@H](n2cnc3c(N)ncnc32)[C@H](O)[C@@H]1O)[C@H]1C[C@@H](CCc2nc3ccc(C(C)(C)C)cc3[nH]2)C1,inactive,active,inactive
CC(C)CS(=O)(=O)N1C[C@H]2C[C@H](C(=O)N3CCOCC3)[C@@H](C1)O2,inactive,inactive,inactive
C[C@@H]1CN([C@@H](C)CO)C(=O)c2cc(NC(=O)Nc3ccccc3)ccc2O[C@@H](C)CCCCO[C@H]1CN(C)S(=O)(=O)c1ccccc1F,inactive,inactive,inactive
COCC#Cc1cnc2c(c1)C(=O)N([C@H](C)CO)C[C@@H](C)[C@@H](CN(C)C(=O)c1ccc3c(c1)OCO3)O2,inactive,inactive,inactive
C[C@@H]1CN([C@@H](C)CO)S(=O)(=O)c2ccc(C#Cc3ccc(F)cc3)cc2O[C@H]1CN(C)S(=O)(=O)c1ccc(F)cc1,inactive,inactive,inactive
CO[C@H]1O[C@H](COC(=O)NCCCCCC(=O)NO)[C@@H](OC(=O)Nc2ccccc2)[C@@H]2OC(=O)[C@H](Cc3cccc(Br)c3)C/C=C/C[C@@H](Cc3cccc(Br)c3)C(=O)O[C@@H]12,inactive,inactive,inactive
Cc1ccc(S(=O)(=O)Nc2ccc3c(c2)C(=O)N([C@H](C)CO)C[C@H](C)[C@H](CN(C)Cc2ccc(C(=O)O)cc2)OCCCC[C@H](C)O3)cc1,inactive,inactive,inactive

Compound,cytotoxicity call (HSkMC),cytotoxicity call (HepG2),growth inhibition call (S. aureus RN4220)
C[C@@H]1CCCCO[C@@H](CN(C)C(=O)Nc2ccc3c(c2)OCO3)[C@H](C)CN([C@H](C)CO)C(=O)c2cc(NC(=O)Nc3ccc(F)cc3)ccc2O1,inactive,inactive,inactive
C[C@@H]1CCCCO[C@@H](CN(C)CC2CC2)[C@H](C)CN([C@@H](C)CO)C(=O)c2cc(NS(=O)(=O)c3ccc(Cl)cc3)ccc2O1,inactive,inactive,inactive
C[C@H](CO)N1C[C@H](C)[C@H](CN(C)S(C)(=O)=O)Oc2c(NS(=O)(=O)c3ccc(Cl)cc3)cccc2C1=O,inactive,inactive,inactive
C[C@@H]1CCCCO[C@H](CN(C)Cc2ccc3c(c2)OCO3)[C@H](C)CN([C@@H](C)CO)C(=O)c2cc(NC(=O)Nc3cccc4ccccc34)ccc2O1,active,active,inactive
Cc1noc(C)c1S(=O)(=O)N(C)C[C@@H]1Oc2c(NS(=O)(=O)c3ccc(F)cc3)cccc2C(=O)N([C@H](C)CO)C[C@@H]1C,inactive,inactive,inactive
Cc1cc(C(=O)Nc2cccc3c2O[C@H](CN(C)C(=O)Nc2c(C)noc2C)[C@@H](C)CN([C@H](C)CO)C3=O)n(C)n1,inactive,inactive,inactive
C[C@H](CO)N1C[C@H](C)[C@@H](CN(C)C(=O)Nc2ccccc2)Oc2ccc(NC(=O)Nc3ccc(C(F)(F)F)cc3)cc2C1=O,inactive,inactive,inactive
NC1CCN(C(=O)Nc2nncs2)CC1,inactive,inactive,inactive
COc1cc2c(cc1OC)-c1onc(-c3ccc(OCCO[Si](C(C)C)(C(C)C)C(C)C)cc3)c1CCCN(C[C@@H](C)O)CC2,inactive,inactive,inactive
COCC#Cc1cnc2c(c1)C(=O)N([C@H](C)CO)C[C@H](C)[C@H](CN(C)C(=O)c1ccc3c(c1)OCO3)O2,inactive,inactive,inactive
C[C@H]1CN([C@@H](C)CO)C(=O)c2cccc(NC(=O)Nc3cccc4ccccc34)c2O[C@H]1CN(C)C(=O)Nc1ccc(F)cc1,inactive,inactive,inactive
CN(C)CC(=O)N1[C@@H]2Cn3c(ccc(-c4ccccc4)c3=O)[C@H]1[C@@H](C(=O)N1CCOCC1)[C@@H]2CO,inactive,inactive,inactive
C[C@H](O)C#Cc1ccc2c(c1)O[C@@H](CN(C)C(=O)CN(C)C)[C@@H](C)CN([C@@H](C)CO)S2(=O)=O,inactive,inactive,inactive
O=C1CNC(=O)N1[C@H]1CCNC1,inactive,inactive,inactive
C[C@@H]1CN([C@@H](C)CO)C(=O)c2cccc(NC(=O)NC3CCCCC3)c2O[C@@H]1CN(C)Cc1ccc(C(=O)Nc2ccccc2N)cc1,inactive,inactive,inactive
C[C@@H]1CN([C@H](C)CO)C(=O)c2cccc(N(C)C)c2O[C@H]1CN(C)S(=O)(=O)c1ccc(Cl)cc1,inactive,inactive,inactive
Cc1noc(C)c1NC(=O)Nc1ccc2c(c1)C(=O)N([C@@H](C)CO)C[C@H](C)[C@H](CN(C)CC1CCCCC1)OCCCC[C@@H](C)O2,inactive,inactive,inactive
Cc1noc(C)c1S(=O)(=O)Nc1ccc2c(c1)CC(=O)N([C@H](C)CO)C[C@@H](C)[C@@H](CN(C)S(=O)(=O)c1c(C)noc1C)O2,inactive,inactive,inactive
Cc1noc(C)c1NC(=O)Nc1ccc2c(c1)C(=O)N([C@@H](C)CO)C[C@@H](C)[C@H](CN(C)C(=O)NC1CCCCC1)OCCCC[C@H](C)O2,inactive,inactive,inactive
COCC#Cc1ccc2c(c1)O[C@H](CN(C)S(=O)(=O)c1cccc(OC)c1)[C@H](C)CN([C@@H](C)CO)S2(=O)=O,inactive,inactive,inactive
C[C@H](CO)N1C[C@H](C)[C@H](CN(C)S(=O)(=O)c2ccccc2)Oc2c(NS(=O)(=O)c3cccs3)cccc2C1=O,inactive,inactive,inactive
CN(C)CC(=O)N1[C@@H]2c3ccc(-c4ccccc4)c(=O)n3C[C@H]1[C@H](CO)[C@H]2C(=O)N1CCN(C)CC1,inactive,inactive,inactive
CC(C)(O)C#Cc1ccc([C@@H]2[C@H](CO)N3CCCCN(S(C)(=O)=O)C[C@@H]23)cc1,inactive,inactive,inactive
C[C@@H]1CCCCO[C@H](CN(C)Cc2ccc(Cl)c(Cl)c2)[C@H](C)CN([C@@H](C)CO)C(=O)c2cc(NC(=O)CCC(F)(F)F)ccc2O1,inactive,active,inactive
COCC(=O)Nc1ccc2c(c1)C(=O)N(C)C[C@@H](OC)[C@@H](C)CN(C(=O)Cc1cccnc1)[C@H](C)CO2,inactive,inactive,inactive
CCCNC(=O)N(C)C[C@H]1Oc2cc(C#Cc3ccccn3)ccc2S(=O)(=O)N([C@H](C)CO)C[C@H]1C,inactive,inactive,inactive
COc1ccc(NC(=O)N(C)C[C@H]2OCCCC[C@@H](C)Oc3ccc(NS(=O)(=O)c4ccc(C)cc4)cc3C(=O)N([C@H](C)CO)C[C@@H]2C)cc1,inactive,inactive,inactive
